Results from the supplement of paper PMC8728848.
The other results are listed elsewhere or left out.

Assays:
Assay in all cases: glycan array binding signal (z-score within array); higher = stronger binding
Conditions in all cases: glycan notation: IUPAC condensed, linker removed
Fuc(a1-2)Gal = target: Fuc(a1-2)Gal
Outline: (§1)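 Columns mapping to the same glycan were averaged after glycan names were converted to IUPAC-condensed notation. The data come from 3228 arrays in the Consortium for Functional Glycomics database, limited to those with an available protein sequence. Binding is reported as a within-array Z-score averaged across arrays of one protein sequence and across linkers.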

Fuc(a1-2)Gal(b1-3)GalNAc = target: Fuc(a1-2)Gal(b1-3)GalNAc
Outline: as §1

[1] = target: Fuc(a1-2)Gal(b1-3)GalNAc(b1-3)Gal
Outline: as §1

[2] = target: Fuc(a1-2)Gal(b1-3)GalNAc(b1-3)Gal(a1-4)Gal(b1-4)Glc
Outline: as §1

[3] = target: Fuc(a1-2)Gal(b1-3)GalNAc(b1-4)[Neu5Ac(a2-3)]Gal(b1-4)Glc
Outline: as §1

Fuc(a1-2)Gal(b1-3)GlcNAc = target: Fuc(a1-2)Gal(b1-3)GlcNAc
Outline: as §1

[4] = target: Fuc(a1-2)Gal(b1-3)GlcNAc(b1-3)Gal(b1-4)Glc
Outline: as §1

[5] = target: Fuc(a1-2)Gal(b1-3)[Fuc(a1-4)]GlcNAc
Outline: as §1

Fuc(a1-2)Gal(b1-4)Glc = target: Fuc(a1-2)Gal(b1-4)Glc
Outline: as §1

Fuc(a1-2)Gal(b1-4)Glc6S = target: Fuc(a1-2)Gal(b1-4)Glc6S
Outline: as §1

Fuc(a1-2)Gal(b1-4)GlcNAc = target: Fuc(a1-2)Gal(b1-4)GlcNAc
Outline: as §1

[6] = target: Fuc(a1-2)Gal(b1-4)GlcNAc(b1-3)Gal(b1-4)GlcNAc
Outline: as §1

[7] = target: Fuc(a1-2)Gal(b1-4)GlcNAc(b1-3)Gal(b1-4)GlcNAc(b1-3)Gal(b1-4)GlcNAc
Outline: as §1

[8] = target: Fuc(a1-2)Gal(b1-4)GlcNAc6S
Outline: as §1

[9] = target: Fuc(a1-2)Gal(b1-4)[Fuc(a1-3)]GlcNAc
Outline: as §1

[10] = target: Fuc(a1-2)Gal(b1-4)[Fuc(a1-3)]GlcNAc(b1-3)Gal(b1-4)[Fuc(a1-3)]GlcNAc
Outline: as §1

[11] = target: Fuc(a1-2)Gal(b1-4)[Fuc(a1-3)]GlcNAc(b1-3)Gal(b1-4)[Fuc(a1-3)]GlcNAc(b1-3)Gal(b1-4)[Fuc(a1-3)]GlcNAc
Outline: as §1

Fuc(a1-2)Gal6S(b1-4)Glc = target: Fuc(a1-2)Gal6S(b1-4)Glc
Outline: as §1

[12] = target: Fuc(a1-2)Gal6S(b1-4)Glc6S
Outline: as §1

[13] = target: Fuc(a1-2)Gal6S(b1-4)GlcNAc
Outline: as §1

Fuc(a1-2)[Gal(a1-3)]Gal = target: Fuc(a1-2)[Gal(a1-3)]Gal
Outline: as §1

[14] = target: Fuc(a1-2)[Gal(a1-3)]Gal(b1-3)GlcNAc
Outline: as §1

[15] = target: Fuc(a1-2)[Gal(a1-3)]Gal(b1-4)Glc
Outline: as §1

[16] = target: Fuc(a1-2)[Gal(a1-3)]Gal(b1-4)GlcNAc
Outline: as §1

[17] = target: Fuc(a1-2)[Gal(a1-3)]Gal(b1-4)[Fuc(a1-3)]GlcNAc
Outline: as §1

[18] = target: Fuc(a1-2)[Gal(a1-4)]Gal(b1-4)GlcNAc
Outline: as §1

[19] = target: Fuc(a1-2)[GalNAc(a1-3)]Gal
Outline: as §1

[20] = target: Fuc(a1-2)[GalNAc(a1-3)]Gal(b1-3)GlcNAc
Outline: as §1

[21] = target: Fuc(a1-2)[GalNAc(a1-3)]Gal(b1-4)Glc
Outline: as §1

[22] = target: Fuc(a1-2)[GalNAc(a1-3)]Gal(b1-4)GlcNAc
Outline: as §1

[23] = target: Fuc(a1-2)[GalNAc(a1-3)]Gal(b1-4)[Fuc(a1-3)]GlcNAc
Outline: as §1

[24] = target: Fuc(a1-2)[GalNAc(a1-4)]Gal(b1-4)GlcNAc
Outline: as §1

[25] = target: Fuc(a1-2)[GalNAc(b1-3)]Gal
Outline: as §1

Fuc(a1-3)GlcNAc = target: Fuc(a1-3)GlcNAc
Outline: as §1

[26] = target: Fuc(a1-3)[Gal(b1-4)]Glc6S
Outline: as §1

[27] = target: Fuc(a1-3)[Gal(b1-4)]GlcNAc
Outline: as §1

[28] = target: Fuc(a1-3)[Gal(b1-4)]GlcNAc(b1-2)Man(a1-3)[Fuc(a1-3)[Gal(b1-4)]GlcNAc(b1-2)Man(a1-6)]Man(b1-4)GlcNAc(b1-4)GlcNAc
Outline: as §1

B1: R410P1E11 (Tachypleus tridentatus), TAL2_TACTR (protein)
chain: MEKGTPPTHDSDNWMGRAKEIGNGGWDQFQFLFFDPNGYLYAVSNDKLYKASPPQSDTDNWIARATEIGSGGWSGFKFLFFHPNGYLYAVRGQRFYKALPPVSNQD
glycan array binding signal (z-score) (Fuc(a1-2)Gal): 0.815 | glycan array binding signal (z-score) (Fuc(a1-2)Gal(b1-3)GalNAc): -0.061 | glycan array binding signal (z-score) [1]: 0.182 | glycan array binding signal (z-score) [2]: -0.563 | glycan array binding signal (z-score) [3]: -0.033 | glycan array binding signal (z-score) (Fuc(a1-2)Gal(b1-3)GlcNAc): 0.333 | glycan array binding signal (z-score) [4]: 0.087 | glycan array binding signal (z-score) [5]: -0.245 | glycan array binding signal (z-score) (Fuc(a1-2)Gal(b1-4)Glc): -0.285 | glycan array binding signal (z-score) (Fuc(a1-2)Gal(b1-4)Glc6S): -0.194 | glycan array binding signal (z-score) (Fuc(a1-2)Gal(b1-4)GlcNAc): -0.278 | glycan array binding signal (z-score) [6]: -0.164 | glycan array binding signal (z-score) [7]: -0.051 | glycan array binding signal (z-score) [8]: -0.199 | glycan array binding signal (z-score) [9]: -0.44 | glycan array binding signal (z-score) [10]: -0.171 | glycan array binding signal (z-score) [11]: -0.03 | glycan array binding signal (z-score) (Fuc(a1-2)Gal6S(b1-4)Glc): -0.503 | glycan array binding signal (z-score) [12]: 0.201 | glycan array binding signal (z-score) [13]: -0.187 | glycan array binding signal (z-score) (Fuc(a1-2)[Gal(a1-3)]Gal): -1.08 | glycan array binding signal (z-score) [14]: -0.345 | glycan array binding signal (z-score) [15]: -0.282 | glycan array binding signal (z-score) [16]: 0.385 | glycan array binding signal (z-score) [17]: 0.709 | glycan array binding signal (z-score) [18]: 0.356 | glycan array binding signal (z-score) [19]: 0.381 | glycan array binding signal (z-score) [20]: -0.286 | glycan array binding signal (z-score) [21]: 0.475 | glycan array binding signal (z-score) [22]: 2.74 | glycan array binding signal (z-score) [23]: 1.41 | glycan array binding signal (z-score) [24]: 5.65 | glycan array binding signal (z-score) [25]: 0.034 | glycan array binding signal (z-score) (Fuc(a1-3)GlcNAc): -0.483 | glycan array binding signal (z-score) [26]: -0.321 | glycan array binding signal (z-score) [27]: -0.121 | glycan array binding signal (z-score) [28]: -0.294
